# Assay results reported in the supplement of paper PMC4166925.
# ± gives the standard deviation of the averaged measurements. Over roughly 33,000 sequences, “E-score (dimensionless, -0.5 to 0.5)” has its median near -0.049; the highest 2% begin near 0.37. The list shows a part of the results.
# System: T1, PmTbr T-box DNA-binding domain (GST fusion)
# T1 sequence: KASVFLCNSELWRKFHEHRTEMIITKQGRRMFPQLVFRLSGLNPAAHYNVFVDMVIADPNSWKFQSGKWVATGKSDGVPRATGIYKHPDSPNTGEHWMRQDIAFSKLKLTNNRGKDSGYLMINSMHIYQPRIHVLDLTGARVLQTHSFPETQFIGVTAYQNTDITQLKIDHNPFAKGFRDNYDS
# Experiment: PBM E-score of 8-mer (E-score (dimensionless, -0.5 to 0.5)); Tbr is Tbrain of the sea star Patiria miniata (Pm) or the sea urchin Strongylocentrotus purpuratus (Sp); higher = stronger binding preference; most listed sequences are background and not binding sites
# Conditions: the construct has about 5 more residues each side
# Procedure, shortened: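 GST-fused Tbr T-box DNA-binding domains (the whole T-box plus about five flanking residues) were expressed in BL21 E. coli at 20 °C and purified by glutathione affinity chromatography. Universal Agilent oligonucleotide arrays were made double-stranded by primer extension, incubated with 200 nM protein in PBS (pH 7.5), then scanned and quantified. Every ungapped 8-mer was scored from probe intensities. The Universal PBM Analysis Suite gave each word an enrichment E-score, averaged over duplicate arrays.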
row,Sequence,PBM E-score of 8-mer
1,GGTGGTTA,-0.0741 ± 0.0065
2,AACACAGA,-0.00947 ± 0.06
3,CACGGCGC,0.117 ± 0.035
4,ACGGCTAT,-0.166 ± 0.019
5,AAAATTGG,-0.0965 ± 0.029
6,GGGCTCGA,-0.0648 ± 0.016
7,CCGTTGTC,0.259 ± 0.018
8,GAGCACGC,-0.126 ± 0.013
9,AAAGTCGA,0.02 ± 0.017
10,ACCGTCTA,-0.17 ± 0.073
11,AACACGCT,0.197 ± 0.011
12,AATCATAC,-0.104 ± 0.035
13,CTGTGTCC,-0.12 ± 0.11
14,CTTTTCTC,0.036 ± 0.017
15,ACTCTAGC,0.00364 ± 0.085
16,ACTCGGTA,-0.169 ± 0.11
17,AAGATCAG,-0.223 ± 0.033
18,TAGCCCTA,-0.307 ± 0.049
19,CCTATTCG,-0.0561 ± 0.047
20,CGCGCAGC,-0.0225 ± 0.046
21,CTCTGATA,-0.00954 ± 0.042
22,CAAGTCTA,-0.0335 ± 0.087
23,TAGGGCGA,-0.0256 ± 0.13
24,TAATGAGA,-0.198 ± 0.096
25,CCTGGTCC,-0.173 ± 0.038

row,Sequence,PBM E-score of 8-mer
1,CCCTCCGA,0.0317 ± 0.12
2,AGTGATTA,0.0592 ± 0.032
3,AATCTGAC,0.00476 ± 0.046
4,CATACTTA,-0.105 ± 0.011
5,GGCTCTCA,0.00055 ± 0.025
6,CGACTATC,0.0791 ± 0.034
7,ATAGAAAT,-0.0543 ± 0.0047
8,ATCCCCAA,-0.227 ± 0.063
9,AGGGTGGA,0.0918 ± 0.0011
10,ACTTACGA,0.0556 ± 0.065
11,ATAACCTC,-0.0514 ± 0.036
12,CAGTGTAG,-0.0223 ± 0.072
13,ATAGTATG,-0.157 ± 0.0018
14,CACCCGCC,0.278 ± 0.012
15,CCCTGGCA,0.102 ± 0.063
16,TAGGAGGA,-0.246 ± 0.067
17,ACCTCAAA,0.108 ± 0.0028
18,CGGGAAGC,-0.0801 ± 0.017
19,GGAACTAC,-0.00194 ± 0.017
20,GAAAAACA,0.0169 ± 0.083
21,GCTTTGCA,0.0382 ± 0.04
22,CTGGCGCA,0.019 ± 0.0017
23,CTTACGGC,-0.138 ± 0.043
24,AAACCGGA,-0.0578 ± 0.0015
25,AACCTTTA,-0.0895 ± 0.057

row,Sequence,PBM E-score of 8-mer
1,CCGTCCTC,-0.267 ± 0.0041
2,AACACCCC,0.433 ± 0.0072
3,CTTTTAGA,-0.255 ± 0.07
4,CCAAGTAA,-0.191 ± 0.054
5,GTGCCCAC,-0.203 ± 0.019
6,GACACAGC,0.1102 ± 0.00023
7,CCCCCGCC,0.0393 ± 0.042
8,GACGAGTA,-0.0965 ± 0.023
9,AGAGTTAT,-0.0216 ± 0.013
10,AACGCTAG,0.125 ± 0.02
11,CCATCATC,-0.0566 ± 0.031
12,ACGTCTCT,-0.0986 ± 0.016
13,CGATGTCA,0.0984 ± 0.03
14,AGAACGAG,-0.0902 ± 0.0033
15,TCCAGGCA,-0.4441 ± 0.0044
16,ATATCAAC,0.0198 ± 0.04
17,ATATATAT,-0.0347 ± 0.059
18,GCTCACAA,0.132 ± 0.037
19,CGTCCAAC,-0.0771 ± 0.053
20,CTAGGCTC,-0.116 ± 0.076
21,ACCGCGTG,0.301 ± 0.021
22,AAGACACA,0.0664 ± 0.031
23,GTCCCGAA,-0.123 ± 0.0091
24,ACCGGGTA,-0.209 ± 0.1
25,AAATATCT,-0.0432 ± 0.073

row,Sequence,PBM E-score of 8-mer
1,CAGCATGA,-0.17 ± 0.008
2,GAAGCGCA,0.0102 ± 0.0031
3,GCCTCTAC,-0.0551 ± 0.073
4,GGTAATAC,-0.222 ± 0.0066
5,ATAAGTTA,-0.0303 ± 0.078
6,CCAGCAGC,-0.165 ± 0.081
7,AGGGTCAA,-0.22 ± 0.031
8,ACCGATAA,0.124 ± 0.036
9,AGCCCTTA,-0.265 ± 0.047
10,GTCGTAAC,0.13 ± 0.018
11,ACTAGCAG,-0.0294 ± 0.074
12,CTGTAGTC,-0.217 ± 0.031
13,AGCTCTAC,-0.155 ± 0.018
14,GAATTCCC,0.0309 ± 0.029
15,ATACTAAG,-0.149 ± 0.09
16,CCTTGCCA,-0.0347 ± 0.035
17,ATGCTGCC,-0.293 ± 0.037
18,CCGAGAAA,-0.00927 ± 0.024
19,CTCAGTCC,-0.148 ± 0.11
20,CAACCATA,-0.0974 ± 0.051
21,CGCGTGCA,-0.0148 ± 0.058
22,CGAATCAA,0.0381 ± 0.021
23,CCGTGTAG,-0.0444 ± 0.053
24,GCGTAAGC,-0.0353 ± 0.016
25,CAGCTATA,-0.0172 ± 0.066

row,Sequence,PBM E-score of 8-mer
1,ATGCATAG,-0.105 ± 0.011
2,CGCTAAGA,0.205 ± 0.039
3,GGGAGATA,-0.077 ± 0.1
4,TCATCGAA,-0.155 ± 0.1
5,AGTATGAT,-0.0161 ± 0.089
6,CCGATCGC,0.0207 ± 0.021
7,AGAGAATC,-0.0446 ± 0.043
8,CGAACACA,0.2078 ± 0.0007
9,GGCGAGCA,-0.102 ± 0.048
10,GTCTAAAA,-0.0666 ± 0.022
11,CCGGTGAG,0.0229 ± 0.12
12,CGCGGTTA,0.0257 ± 0.021
13,ACGTTTTG,0.0123 ± 0.034
14,GGATTGCA,-0.0775 ± 0.053
15,AAAGGTGA,0.398 ± 0.025
16,TACATACA,-0.24 ± 0.07
17,GATGATAC,-0.134 ± 0.052
18,ATAAACGG,-0.131 ± 0.087
19,AGAAAAGG,-0.0223 ± 0.033
20,GCTAATAA,-0.0664 ± 0.054
21,CACCCCTG,0.322 ± 0.012
22,ACCGTAGG,0.0335 ± 0.018
23,GCCCGCGC,-0.0513 ± 0.00069
24,AATCGTCA,0.21294 ± 0.00012
25,CAGGCAGG,-0.131 ± 0.083

row,Sequence,PBM E-score of 8-mer
1,AATCGTGA,0.194 ± 0.0058
2,CGCGTTAA,0.27 ± 0.013
3,CGGCGACG,-0.0498 ± 0.079
4,CCTATCCG,-0.178 ± 0.0092
5,CCTGTACG,-0.199 ± 0.028
6,AGTGTCGG,0.38 ± 0.0074
7,CACGTCGG,0.281 ± 0.016
8,CAATCGGA,-0.266 ± 0.029
9,GACGTATA,-0.189 ± 0.055
10,ACGTCAGT,0.0998 ± 0.0086
11,CACGCCAA,0.312 ± 0.013
12,ATAAAAGC,0.015 ± 0.061
13,GATGAGGC,-0.243 ± 0.04
14,AGTGGTTC,-0.18 ± 0.0056
15,TTACCAAA,0.1 ± 0.065
16,CACCGGTA,0.116 ± 0.025
17,TATTCGAA,0.0267 ± 0.0037
18,CAGCTGTA,-0.0311 ± 0.023
19,CAGAAAAC,-0.0688 ± 0.07
20,ACGGCTCG,0.216 ± 0.023
21,GTCAACAC,0.427 ± 0.012
22,AATGTACT,-0.191 ± 0.068
23,CTAGTCCC,-0.132 ± 0.064
24,TGACGGCA,0.126 ± 0.097
25,CAACAGAC,-0.137 ± 0.0075

row,Sequence,PBM E-score of 8-mer
1,CCATCGTC,0.147 ± 0.0089
2,CACTGGTA,-0.0275 ± 0.024
3,ATCACTAG,0.0709 ± 0.015
4,GGTACACC,-0.0342 ± 0.029
5,AATAGAAT,-0.0447 ± 0.008
6,GAGTCCAA,0.00391 ± 0.083
7,GTACGCAC,0.0886 ± 0.018
8,ACCGGTCA,-0.113 ± 0.002
9,ATCGCCCG,0.13 ± 0.044
10,CCAGAACG,-0.0252 ± 0.013
11,AGCAGGCT,-0.041 ± 0.024
12,CTGACTTA,-0.296 ± 0.012
13,ACTTCTCT,-0.00718 ± 0.036
14,AATTGCCC,0.0298 ± 0.0098
15,CTTACATC,-0.0211 ± 0.062
16,GAGACGGA,-0.116 ± 0.046
17,TACCGTGA,-0.00931 ± 0.003
18,CTTGAGTC,-0.262 ± 0.014
19,ATAGAGCG,-0.0757 ± 0.0015
20,ATGGTGCA,0.0403 ± 0.03
21,ACTGTCAA,0.162 ± 0.028
22,GACGGTAC,-0.0822 ± 0.11
